# Data taken from the supplement of paper PMC9135407.
# Where “and” joins values, the source holds several entries; their conditions need not be identical. Equal entries are not always repeated. Structures can show the parent of a compound that is named as a salt. The campaign covered roughly 5,800 compounds. About 620 (11%) showed activity.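 How the source made its calls: active = score above a cut-off or among the top three wells of a plate; in these data no inactive exceeds 0.85.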 This is a selection; strong and weak results do not stand in their true shares.
# Tested on: primary human hepatic stellate cells (donor 1)
# Test: scaled lipid accumulation score (0 = DMSO-like, 1 = nortriptyline-like); higher = stronger HSC inactivation (lipid re-accumulation), active = hit call of the paper
# Conditions: 48 h
# [1] = library stock concentration: 80 uM
# [2] = library stock concentration: 400 uM
# [3] = library stock concentration: 2 mM
# [4] = library stock concentration: 10 mM
# [5] = library stock concentration: 3.33 mM
# [6] = library stock concentration: 1 mM
structure (smiles),measurement,setting,value
NC(=O)Nc1cc(-c2cccc(F)c2)sc1C(=O)N[C@H]1CCCNC1,scaled lipid accumulation score,[1],inactive: ≤ 0
same,scaled lipid accumulation score,[2],inactive: 0.06 and inactive: ≤ -0.005
same,scaled lipid accumulation score,[3],inactive: 0.23 and inactive: 0.444
same,scaled lipid accumulation score,[4],inactive: 0.559 and inactive: 0.276
O=C(c1ccc(F)cc1)C1CCN(CCn2c(=O)[nH]c3ccccc3c2=O)CC1 [Ketanserin tartrate],scaled lipid accumulation score,library stock concentration: 5.1 mM,inactive: 0.139 and inactive: ≤ 0
same,scaled lipid accumulation score,[4],inactive: ≤ 0 and inactive: 0.066 and inactive: 0.175
O=C(c1ccc(F)cc1)C1CCN(CCn2c(=O)[nH]c3ccccc3c2=O)CC1 [Ketanserin tartrate hydrate],scaled lipid accumulation score,,inactive: 0.115
O=C(c1ccc(F)cc1)C1CCN(CCn2c(=O)[nH]c3ccccc3c2=O)CC1 [Ketanserin],scaled lipid accumulation score,[5],inactive: 0.005
same,scaled lipid accumulation score,[4],inactive: ≤ 0
"CC[C@@H](CO)Nc1nc(NCc2ccc(-c3ccccn3)cc2)c2ncn(C(C)C)c2n1 [CR8, (S)-Isomer]",scaled lipid accumulation score,[5],inactive: ≤ 0
CCN(CC)C(=O)c1ccc(O)c(OC)c1 [Vanillic acid diethylamide],scaled lipid accumulation score,[4],inactive: 0.074
CCN(CC)C(=O)c1ccc(O)c(OC)c1 [Ethamivan],scaled lipid accumulation score,,inactive: 0.045
same,scaled lipid accumulation score,library stock concentration: 9 mM,inactive: ≤ 0
Cc1noc(NS(=O)(=O)c2cccc3c(N(C)C)cccc23)c1C,scaled lipid accumulation score,[4],inactive: ≤ -0.006
COc1ccc(-c2cc(=O)c3c(O)c(OC)c(OC)c(OC)c3o2)cc1 [Gardenin b],scaled lipid accumulation score,[4],inactive: 0.187
NC1(C(=O)O)CC1 [1-Aminocyclopropanecarboxylic acid hydrochloride],scaled lipid accumulation score,[4],inactive: 0.058
CN(C)c1ccc(-c2nc3c(N4CCN(CC(=O)Nc5nccs5)CC4)c(Cl)cnc3[nH]2)cc1,scaled lipid accumulation score,[5],active: 0.858
same,scaled lipid accumulation score,[4],active: 0.949
CCCCCCCCCCCCCCCC(=O)OC[C@H](O)[C@H]1OC(=O)C(O)=C1O [Ascorbyl palmitate],scaled lipid accumulation score,library stock concentration: 4.8 mM,inactive: 0.002
CCCCCCCCCCCCCCCCOC[C@H](COP(=O)([O-])OCCCCCC[N+](C)(C)C)OC(C)=O [Hexanolamino PAF C-16],scaled lipid accumulation score,[6],inactive: ≤ 0
COc1ccc(C2(O)OC(=O)C(c3ccc4c(c3)OCO4)=C2Cc2cc(OC)c(OC)c(OC)c2)cc1 (stereo not given),scaled lipid accumulation score,[4],inactive: 0.037
Cc1ccc(NC(=O)NCCSCc2ccc(CN(C)C)o2)cc1Cl,scaled lipid accumulation score,[4],active: 0.931
Cc1csc(-c2nnc(Nc3ccc(Oc4ncccc4-c4ccnc(N)n4)cc3)c3ccccc23)c1,scaled lipid accumulation score,[5],inactive: ≤ 0
same,scaled lipid accumulation score,[4],inactive: ≤ 0
Nc1nc2c(ncn2COC(CO)CO)c(=O)[nH]1 [Ganciclovir],scaled lipid accumulation score,,inactive: ≤ 0
same,scaled lipid accumulation score,[5],inactive: ≤ 0
same,scaled lipid accumulation score,library stock concentration: 7.8 mM,inactive: ≤ 0
same,scaled lipid accumulation score,[4],inactive: ≤ 0 and inactive: ≤ -0.07
c1ccc2c(CCNc3ccc(Nc4ccncc4)cc3)c[nH]c2c1,scaled lipid accumulation score,[1],inactive: 0.025
same,scaled lipid accumulation score,[2],inactive: 0.211
same,scaled lipid accumulation score,[3],inactive: 0.167
same,scaled lipid accumulation score,[5],inactive: 0.347
same,scaled lipid accumulation score,[4],inactive: 0.232 and inactive: 0.843
NCCCCCC(=O)O [6-aminocaproic acid],scaled lipid accumulation score,[4],inactive: ≤ 0
NCCCCCC(=O)O [Aminocaproic acid],scaled lipid accumulation score,,inactive: ≤ 0
same,scaled lipid accumulation score,library stock concentration: 15.2 mM,inactive: ≤ -0.001
NCCCCCC(=O)O [6-Aminohexanoic acid],scaled lipid accumulation score,[4],inactive: 0.153
NCCCCCC(=O)O,scaled lipid accumulation score,[5],inactive: ≤ 0
same,scaled lipid accumulation score,[4],inactive: ≤ 0
CC(C)CCNC(=O)[C@H](CC(C)C)NC(=O)[C@H]1O[C@@H]1C(=O)O [Loxistatin Acid (E-64C)],scaled lipid accumulation score,[5],inactive: ≤ -0.009
same,scaled lipid accumulation score,[4],inactive: ≤ 0
CN(C)C(=N)NC(=N)N [Metformin hydrochloride],scaled lipid accumulation score,,inactive: ≤ 0
same,scaled lipid accumulation score,[4],inactive: ≤ -0.027
same,scaled lipid accumulation score,library stock concentration: 12.1 mM,inactive: ≤ 0
CN(C)C(=N)NC(=N)N [Metformin],scaled lipid accumulation score,library stock concentration: 15.5 mM,inactive: ≤ -0.006
COc1c(C)cnc(Cn2cnc3c(Cl)nc(N)nc32)c1C,scaled lipid accumulation score,[4],inactive: 0.768
CC=CC(=O)N(CC)c1ccccc1C [Crotamiton],scaled lipid accumulation score,,inactive: ≤ 0
same,scaled lipid accumulation score,[4],inactive: ≤ -0.027
c1cn2cc(-c3ccc4cn[nH]c4c3)nc(Nc3ccc(N4CCOCC4)cc3)c2n1,scaled lipid accumulation score,[5],active: 1.04
same,scaled lipid accumulation score,[4],active: 0.944
CC1=C(C)C(=O)C(C(CCCCCC(=O)O)c2ccccc2)=C(C)C1=O (stereo not given),scaled lipid accumulation score,[4],inactive: ≤ 0
CC(C)Oc1ccc(-c2cnc3c(-c4ccnc5ccccc45)cnn3c2)cc1,scaled lipid accumulation score,[5],inactive: ≤ -0.009
same,scaled lipid accumulation score,[4],inactive: ≤ 0
CNCCCN1c2ccccc2CCc2ccccc21.Cl [Desipramine hydrochloride],scaled lipid accumulation score,,active: 0.887
Cn1ncnc1[C@H]1c2n[nH]c(=O)c3cc(F)cc(c23)N[C@@H]1c1ccc(F)cc1,scaled lipid accumulation score,[5],inactive: ≤ 0
same,scaled lipid accumulation score,[4],inactive: ≤ -0.001
C=CCN(C)CCCCCCOc1ccc(C(=O)c2ccc(Br)cc2)c(F)c1,scaled lipid accumulation score,[6],inactive: 0.116
CC(=O)O[C@]1(C(C)=O)CC[C@H]2[C@@H]3C=C(Cl)C4=CC(=O)CC[C@]4(C)[C@H]3CC[C@@]21C [Chlormadinone acetate],scaled lipid accumulation score,library stock concentration: 4.5 mM,inactive: 0.064
same,scaled lipid accumulation score,library stock concentration: 4.9 mM,inactive: 0.08
CCN(CC)C(C)CN1c2ccccc2Sc2ccccc21 (stereo not given) [Ethopropazine hydrochloride],scaled lipid accumulation score,,inactive: 0.644
same,scaled lipid accumulation score,library stock concentration: 5.7 mM,inactive: 0.667
same,scaled lipid accumulation score,[4],inactive: 0.301 and inactive: 0.673
CCCNC(=O)NS(=O)(=O)c1ccc(Cl)cc1 [Chlorpropamide],scaled lipid accumulation score,,inactive: ≤ 0
same,scaled lipid accumulation score,[5],inactive: ≤ 0
same,scaled lipid accumulation score,library stock concentration: 7.2 mM,inactive: 0.007
same,scaled lipid accumulation score,[4],inactive: 0.001 and inactive: ≤ 0
CCCNC(=O)NS(=O)(=O)c1ccc(Cl)cc1,scaled lipid accumulation score,[4],inactive: ≤ 0
Cl.Nc1ccc(C(=O)Nc2cccc(-c3nc(N4CCOCC4)c4oc5ncccc5c4n3)c2)cn1,scaled lipid accumulation score,[3],active: 1.74
same,scaled lipid accumulation score,[4],active: 1.25
Cc1cc(O)c(C(=O)N[C@@H](C(=O)N[C@@H]2C(=O)N3C(C(=O)O)=C(CSc4nnnn4C)CS[C@H]23)c2ccc(O)cc2)cn1,scaled lipid accumulation score,[4],inactive: ≤ 0
COc1cc(-c2ncn(/C=C\C(=O)OC(C)C)n2)cc(C(F)(F)F)c1,scaled lipid accumulation score,[5],inactive: ≤ -0.009
same,scaled lipid accumulation score,[4],inactive: ≤ 0
N=C(N)NCCCCNC(=N)N [Arcaine sulfate],scaled lipid accumulation score,,inactive: ≤ 0
same,scaled lipid accumulation score,[4],inactive: ≤ 0
CCN(CC)c1ccc(/C=N/NC(=O)c2ccc(O)cc2)cc1,scaled lipid accumulation score,[4],inactive: ≤ -0.001
CO[C@H]1/C=C/O[C@@]2(C)Oc3c(C)c(O)c4c(O)c(c5c(nc6cc(C)ccn65)c4c3C2=O)NC(=O)/C(C)=C\C=C\[C@H](C)[C@H](O)[C@@H](C)[C@@H](O)[C@@H](C)[C@H](OC(C)=O)[C@@H]1C,scaled lipid accumulation score,[4],inactive: ≤ 0
CO[C@H]1/C=C/O[C@@]2(C)Oc3c(C)c(O)c4c(O)c(c5c(nc6cc(C)ccn65)c4c3C2=O)NC(=O)/C(C)=C\C=C\[C@H](C)[C@H](O)[C@@H](C)[C@@H](O)[C@@H](C)[C@H](OC(C)=O)[C@@H]1C [Rifaximin],scaled lipid accumulation score,[5],inactive: ≤ 0
same,scaled lipid accumulation score,[4],inactive: ≤ 0
O=C1[C@H]2CCCC[C@H]2C(=O)N1CCCCN1CCN(c2nsc3ccccc23)CC1,scaled lipid accumulation score,[4],inactive: 0.113
Clc1cccc(Cl)c1NC1=NCCN1 [Clonidine HCl],scaled lipid accumulation score,[5],inactive: ≤ 0
same,scaled lipid accumulation score,library stock concentration: 8.7 mM,inactive: 0.036
same,scaled lipid accumulation score,[4],inactive: ≤ 0
Clc1cccc(Cl)c1NC1=NCCN1 [Clonidine],scaled lipid accumulation score,library stock concentration: 21.7 mM,inactive: 0.047
Clc1cccc(Cl)c1NC1=NCCN1,scaled lipid accumulation score,[4],inactive: ≤ 0
Clc1cccc(Cl)c1NC1=NCCN1 [Clonidine hydrochloride],scaled lipid accumulation score,,inactive: ≤ 0
same,scaled lipid accumulation score,library stock concentration: 7.5 mM,inactive: ≤ 0
same,scaled lipid accumulation score,[4],inactive: ≤ 0 and inactive: 0.047
Cc1cc(C(C)(C)C)cc(C)c1CC1=NCCN1 [Xylometazoline hydrochloride],scaled lipid accumulation score,,inactive: 0.431
same,scaled lipid accumulation score,library stock concentration: 7.1 mM,inactive: 0.382
same,scaled lipid accumulation score,[4],inactive: 0.155 and inactive: 0.049
Cc1cc(C(C)(C)C)cc(C)c1CC1=NCCN1 [Xylometazoline HCl],scaled lipid accumulation score,[5],inactive: 0.103
same,scaled lipid accumulation score,[4],inactive: 0.418
CCN(CC)C(=O)C1(c2ccccc2)CC1CN (stereo not given) [Milnacipran HCl],scaled lipid accumulation score,[5],inactive: ≤ 0
same,scaled lipid accumulation score,[4],inactive: ≤ -0.001
CCN(CC)C(=O)C1(c2ccccc2)CC1CN (stereo not given),scaled lipid accumulation score,[4],inactive: ≤ 0
CCN(CC)C(=O)C1(c2ccccc2)CC1CN (stereo not given) [Milnacipran],scaled lipid accumulation score,[4],inactive: ≤ 0
CCN(CCCCOC(=O)c1ccc(OC)c(OC)c1)C(C)Cc1ccc(OC)cc1 (stereo not given) [Mebeverine hydrochloride],scaled lipid accumulation score,,inactive: 0.362
same,scaled lipid accumulation score,[4],inactive: ≤ 0
"O=c1[nH]ccc2c(O)cccc12 [1,5-Isoquinolinediol]",scaled lipid accumulation score,[4],inactive: ≤ -0.055
O=c1cc(-c2ccccc2F)[nH]c2cc3c(cc12)OCO3 [CHM-1 hydrate],scaled lipid accumulation score,[4],active: 0.875
CCN1CCN(Cc2ccc(Nc3ncc(F)c(-c4cc(F)c5nc(C)n(C(C)C)c5c4)n3)nc2)CC1 [Abemaciclib],scaled lipid accumulation score,[3],active: 0.882
CC(C)(CO)[C@@H](O)C(=O)NCCC(=O)O [Pantothenic acid(d) na salt],scaled lipid accumulation score,library stock concentration: 8.3 mM,inactive: ≤ 0
CC(C)(CO)[C@@H](O)C(=O)NCCC(=O)O [Pantothenic acid calcium salt monohydrate],scaled lipid accumulation score,,inactive: 0.031
CC(C)(CO)[C@@H](O)C(=O)NCCC(=O)O [D-Pantothenic acid],scaled lipid accumulation score,[5],inactive: ≤ 0
same,scaled lipid accumulation score,[4],inactive: ≤ 0
CC(C)(CO)[C@@H](O)C(=O)NCCC(=O)O [Pantothenic acid],scaled lipid accumulation score,library stock concentration: 9.1 mM,inactive: 0.053
O=c1nc2ccccc2c2n1CC(CN1CCN(c3ccccc3)CC1)N2 (stereo not given),scaled lipid accumulation score,[4],inactive: 0.112
O=C(c1cc(O)c(O)c([N+](=O)[O-])c1)c1ccccc1F,scaled lipid accumulation score,[4],inactive: ≤ 0
CC#CCn1c(N2CCC[C@@H](N)C2)nc2c1c(=O)n(Cc1nc(C)c3ccccc3n1)c(=O)n2C [Linagliptin],scaled lipid accumulation score,[5],inactive: ≤ 0
same,scaled lipid accumulation score,[4],inactive: ≤ 0
